The source of these data is the supplement of paper PMC11417369.

± gives the standard deviation of the averaged measurements. This is one part of the list.

For the test, the system named is PfAP2-I AP2 domain 3 (GST-tagged). Description: gcPBM binding intensity (ln(normalized median fluorescence intensity)); higher = stronger DNA binding. The gist of the method: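 GST-tagged P. falciparum DNA-binding domains produced in E. coli were incubated for 1 h on an Agilent 4 × 180k array of primer-extended double-stranded 36-bp intergenic genomic probes with negative controls. Binding intensity is the highest Masliner-normalised natural-log median intensity across replicate spots of either probe orientation, with bound protein detected by Alexa488 anti-GST antibody at 488 nm.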
As to “AATATATATTAAATATGTACTTATTTTTTGGTTGCT [XGTACX_site3613]”, the “gcPBM binding intensity (ln)” value was 7.86 ± 0.24.
Take “CGCACCCACAGACACACACACACATATATATATATA [CACACA_site2202]”: the “gcPBM binding intensity (ln)” value amounted to 9.275 ± 0.092.
Consider “TACATACAGAAACACACACACACATATATATATATA [CACACA_site2919]”, for which the “gcPBM binding intensity (ln)” value was determined as 9.45 ± 0.35.
To “AAAGAATAATTAAATACACACATATTACAGTAAAAA [CACACA_site2450]” belongs 7.86 ± 0.65; to “TTATATATGACTAACGGTTTTTTTTTTTTTTTTTTT [CACACA_negctrl_site576]”, 9.38 ± 0.33.
To “TTATTATATAAAGTTTCACACATTATTTGTTCAAAC [CACACA_site5218]” belongs 7.53 ± 0.71; to “ATATGAAGTATCGAATTAAGGGCAACAAATAAATTA [CACACA_negctrl_site1116]”, 7.93 ± 0.57.
For the sequence “AATATAAGCAAATACACACACACATATAAATATGTA [CACACA_site7741]”, the “gcPBM binding intensity (ln)” value stood at 7.66 ± 0.47.
On to “TACATATATAAATATGTACACACATATGTATGATCT [CACACA_site9284]”, for which the “gcPBM binding intensity (ln)” value is 7.64 ± 0.4.
With “TAATATCAATTTTTATGTACTTATATATATATATAT [XGTACX_site5879]” the figure was 9.27 ± 0.34.
“AGTAGTCTGGAGAAGAGTACACAGTATCTGGTAACA [XGTACX_site2032]”: the “gcPBM binding intensity (ln)” value turned out to be 7.65 ± 0.48.
To “ATTGAGAGAAAAAAATGTACTTGATCAAAATGGATA [XGTACX_site1649]” belongs 7.75 ± 0.64; to “AAAAATCATATAGGTTGTACGGGTAGTTTATTTTAT [XGTACX_site6936]”, 7.87 ± 0.69.
For the sequence “GTGTATATATGTTATACACACAAAAATATTTTGTAT [CACACA_site265]”, the “gcPBM binding intensity (ln)” value came out at 7.81 ± 0.52.
“TATATATATTTTATGTGTACTCAATGTTATAACGCA [XGTACX_site8360]”: the “gcPBM binding intensity (ln)” value is 8.41 ± 0.42.
“AATAGAGTTGAATGCACACATACAAATTTTTAGTTT [CACACA_site3564]”: the “gcPBM binding intensity (ln)” value worked out at 9.56 ± 0.24.
On to “TGCATAATTAAAAATGGTACACTGTATTTATAATAT [XGTACX_site1575]”, for which the “gcPBM binding intensity (ln)” value is 7.95 ± 0.61.
Turning to “TATAAATTAAGATAACGTACATATAATAATATAAAC [XGTACX_site487]”, the “gcPBM binding intensity (ln)” value was 7.8 ± 0.59.
To “TGTACAGTATATACAACACACATTTGTATAAATATA [CACACA_site1002]” belongs 7.67 ± 0.35.
Consider “TGTACACCCAGAAATGCACACACATATATATATATA [CACACA_site8716]”, for which the “gcPBM binding intensity (ln)” value came out at 9.54 ± 0.18.
For “ATATATATATCACGCACACACGAATTTTAAATATAT [CACACA_site5691]”, the “gcPBM binding intensity (ln)” value came out at 9.15 ± 0.13.
In the case of “TTATTTTTACAATTTTAATAATAATACTAAAACAAA [XGTACX_negctrl_site538]”, the “gcPBM binding intensity (ln)” value stood at 7.39 ± 0.38.
Take “TCTTTTGCCCAAAAAGGTACACACCACAATTTAAAT [XGTACX_site1482]”: the “gcPBM binding intensity (ln)” value was 8.26 ± 0.53.
With “TATTGTATGGTAGGATATGATGTTATTTGTTATAAT [CACACA_negctrl_site202]” the figure was 7.71 ± 0.67.
